In PMC9619224:
These are yes or no findings as the source states them, for the method shown. In cells and extracts the contact can be indirect. Some results given as binding are weak or reduced against the parent protein; the word gives no strength. Where a sequence is shown, tags or fusion partners need not be part of it.

Chains of the proteins cited; added tags and fusions are not shown. Residues count along the entry.
UniProt P35347, residues 24-415: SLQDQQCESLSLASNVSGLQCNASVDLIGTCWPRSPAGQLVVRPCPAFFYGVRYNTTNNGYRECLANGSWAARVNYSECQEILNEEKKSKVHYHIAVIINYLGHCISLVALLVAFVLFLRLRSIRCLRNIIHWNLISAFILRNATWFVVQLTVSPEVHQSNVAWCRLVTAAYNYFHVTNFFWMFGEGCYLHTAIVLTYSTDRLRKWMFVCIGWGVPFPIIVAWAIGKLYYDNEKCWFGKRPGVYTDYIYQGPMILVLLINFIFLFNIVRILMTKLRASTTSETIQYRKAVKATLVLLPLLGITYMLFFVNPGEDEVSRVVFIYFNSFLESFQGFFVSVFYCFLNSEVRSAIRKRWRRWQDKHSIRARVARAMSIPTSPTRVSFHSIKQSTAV

Target: Corticotropin releasing hormone receptor 1 with YFP F1 at the C‐terminus (mouse) (UniProt P35347)
Experiment: split reporter; BiFC: YFP F1 at the C-terminus of the GPCR, YFP F2 at the C-end of MRAP1/MRAP2-Flag; HEK293T cells fixed 24 h after transfection, confocal microscopy

binding: binds
B1: MRAP2‐Flag‐F2 (protein, UniProt D3Z1Q2 1-207)
chain: MEMSAQRLASNRTSPQSPSNSDYTWEYEYYEIGPVSFEGLKAHKYSIVIGFWVGLAVFVIFMFFVLTLLTKTGAPHQDNAESSERRFRMNSFVSDFGKPLESDKVFSRQGNEESRSLFHCYINEVEHLDRVKVCHQTTAIDSDVHLQEASRSSGRPEEELARFMKFDIPNFVNTEQSSFGEDDLLISEAPVLLENKPVSQTSRIDLD
